{"source": "patent US9585899B2", "about": "“Method of inhibiting platelet aggregation and clot formation” (The Johns Hopkins University, priority 2007, dated 2017)", "key": {"cathepsin G": {"test_system": "cathepsin G", "assay": "Neutrophil expression and release of cathepsin G by Western blotting", "assay_type": "cell-based, human", "method": "Neutrophil expression and release of cathepsin G in the absence and presence of IL-6 pre-treatment was examined. Briefly, neutrophils were isolated by histopaque density centrifugation and cultured in the absence or presence of IL-6 for 24 hours as described above. Neutrophil expression of cathepsin G was determined from lysates of IL-6-treated and vehicle-treated PMNs as follows: Cultured cells were washed, resuspended in lysis buffer (0.1% SDS, 150 mM NaCl, 50 mM Tris-HCl, 2 mM EDTA, 10 μg/ml aprotinin, 10 μg/ml leupeptin, 1 mM PMSF, 1 mM Na3VO4), and proteins separated by SDS-PAGE (10 μg protein/lane on 10% polyacrylamide gel). Proteins were transferred to nitrocellulose membranes and probed with goat-anti-human cathepsin G antibody (Santa Cruz Biotechnology) followed by HRP-conjugated rabbit anti-goat secondary antibody (Santa Cruz Biotechnology). Proteins were visualized by enhanced chemiluminescence and bands quantified by densitometry. Neutrophil release of cathepsin G was determined by Western blotting supernatants obtained from TRAP-stimulated aggregation samples of PRP alone, PRP reconstituted with vehicle-treated PMN, and PRP reconstituted with IL-6-treated PMN."}, "[1]": {"test_system": "platelet aggregation in platelet rich plasma with lymphocytes", "assay": "Impedance aggregometry of platelet rich plasma reconstituted with lymphocytes", "assay_type": "cell-based, human", "conditions": "lymphocytes cultured 24 hours with IL-6 10 ng/ml", "from_the_text": "To gain perspective on the specificity of leukocyte subtype for enhancement of platelet activation, the effect of lymphocytes on platelet aggregation was examined in vitro. […] In the presence of lymphocytes, diminished platelet aggregation in response to collagen was observed and IL-6 had no impact."}, "C57BL6/J mice [2]": {"test_system": "C57BL6/J mice", "assay": "Ferric chloride mesenteric microvascular injury, time to first thrombus by intravital fluorescence microscopy", "assay_type": "in vivo, mouse", "method": "We sought to determine the in vivo effect of exogenous IL-6 on thrombus formation. Microvascular thrombus formation was assessed using intravital fluorescence microscopy as previously described^21 with modification. Briefly, C57BL6/J mice were treated with IL-6 (100 ng/100 μl) or vehicle by intramuscular injection on two consecutive days. Two days after the first injection, mice were anesthetized with ketamine/xylazine and injected intravenously with rhodamine-6-G (50 μl of 0.05% solution) to label circulating leukocytes^22. Mesentery was exteriorized through a midline abdominal incision, and arterioles (60-80 μm) and venules (120-150 μm) were visualized using an inverted fluorescence microscope (Nikon). Endothelial damage was induced by topical application of ferric chloride (250 or 500 μM) and images of leukocyte adherence to damaged endothelium and incorporation into thrombi were recorded with a digital camera (Retiga). Time to formation of first thrombus, defined as a thrombus >10 μm in diameter, was determined from digital images. […]\nC57BL6/J mice were anesthetized with ketamine/xylazine and injected intravenously with an inhibitor of cathepsin G, Z-Gly-Leu-Phe-CMK (50 μl of 4 mM solution to achieve ˜100 μM in vivo), or vehicle. […] Time to first thrombus formation was determined from digital images obtained using intravital fluorescence microscopy as described above."}, "C57BL6/J mice [3]": {"test_system": "C57BL6/J mice", "assay": "Tail bleeding time in anesthetized mice", "assay_type": "in vivo, mouse", "method": "(§1) To determine if neutrophils participated in hemostasis in vivo standardized bleeding time in mice was examined after manipulating the number of circulating neutrophils. Briefly, C57BL6/J wild-type mice were injected intraperitoneally with anti-neutrophil antibody (Gr-1, 0.25 mg) or isotype control. Two days later mice were anesthetized with ketamine (80 mg/kg)/xylazine (13 mg/kg) and tail bleeding was performed by amputating a 3 mm section of the distal tail and immersing it in 37° C. PBS. The time to visual cessation of bleeding was recorded. At the end of each experiment, blood was obtained by retro-orbital puncture and complete blood counts determined by automated cell counter (HemaVet).\n(§2) Briefly, C57BL6/J mice were treated with a single intraperitoneal injection of CYP (50 mg/kg or control vehicle) followed by daily subcutaneous injection of G-CSF (1 μg or control vehicle) for 3 days. Three days after CYP injection, tail bleeding time was assessed in anesthetized mice (ketamine 100 mg/kg intramuscular injection). Leukocyte counts were determined by automated cell counting and manual differential.\n(§3) Mice were treated for 3 consecutive days by SQ injection of vehicle or GCSF (1 μg). […] In each experimental series, bleeding time was determined 30 minutes after IV injection after amputating the distal 3 mm section of tail."}, "[4]": {"test_system": "platelet aggregation in platelet rich plasma with neutrophils (PMN)", "assay": "TRAP-induced impedance aggregometry of platelet rich plasma reconstituted with cultured neutrophils", "conditions": "for TRAP-induced platelet aggregation in presence of cytokine-treated neutrophils: neutrophils cultured 24 hours with cytokine 10 ng/ml, compared with PRP alone or vehicle-treated neutrophils, 15 μM TRAP"}, "platelet aggregation": {"test_system": "platelet aggregation", "assay": "Arachidonic acid-induced platelet aggregation (preliminary experiments)", "assay_type": "cell-based", "conditions": "30 μM aspirin"}, "[5]": {"test_system": "circulating neutrophils, monocytes, lymphocytes", "assay": "Blood cell counts in treated mice", "assay_type": "in vivo, mouse", "method": "as §1, §2, §3"}, "[6]": {"conditions": "Example 11, FIG. 13, 30 minutes after IV injection, aspirin 50 μl of 1000 μM, C36H33N2O6P 50 μl of 20 μM"}, "[7]": {"conditions": "Example 6, FIG. 8, 20 min incubation, Z-Gly-Leu-Phe-CMK 100 μM, aspirin 30 μM"}}, "note": "Peptide text beside a SMILES is read from it. * marks the point of attachment. Cbz = O=C(OCc1ccccc1)*; CH2Cl = ClC*"}
{"molecule": "IL-6: inflammatory cytokine interleukin 6", "values": [{"measurement": "neutrophil expression of cathepsin G", "setting": "cathepsin G; IL-6 10 ng/ml 24 hours, cell lysates", "result": "increases neutrophil expression of cathepsin G"}, {"measurement": "neutrophil release of cathepsin G in presence of activated platelets", "setting": "cathepsin G; PMNs pre-treated with IL-6, supernatants of TRAP-stimulated aggregation samples", "result": "release is enhanced"}, {"measurement": "TRAP-induced platelet aggregation in presence of IL-6-treated lymphocytes", "setting": "[1]", "result": "no significant effect on aggregation"}, {"measurement": "collagen-induced platelet aggregation in presence of IL-6-treated lymphocytes", "setting": "[1]", "result": "no impact"}, {"measurement": "shortening of time to formation of first thrombus (>10 μm)", "setting": "C57BL6/J mice [2]; IL-6 100 ng/100 μl intramuscular on two consecutive days, vs vehicle", "result": "greater than 50%"}]}
{"molecule": "CN(C(=O)c1cc2ccccc2cc1C(=O)C(c1cccc2ccccc12)P(=O)(O)O)C1CCN(C(=O)c2ccccc2)CC1", "note": "(stereo not shown) [C36H33N2O6P]", "values": [{"measurement": "tail bleeding time, inhibitor in mice given vehicle for GCSF", "setting": "C57BL6/J mice [3]; [6]", "result": "prolonged bleeding time"}]}
{"molecule": "CC(=O)Oc1ccccc1C(=O)O", "note": "[aspirin]", "values": [{"measurement": "effect of inhibitor on TRAP-induced aggregation in presence of vehicle-treated neutrophils", "setting": "[4]; [7]", "result": "did not alter the pro-aggregatory effect of vehicle-treated neutrophils"}, {"measurement": "TRAP-induced platelet aggregation with increasing neutrophil concentrations, vs DMSO vehicle", "setting": "[4]; Example 10, FIG. 12, aspirin 30 μM, C36H33N2O6P 500 nM, up to 20×10^3 neutrophils/μl", "result": "no significant difference between vehicle and aspirin-treated samples at any of the neutrophil concentrations"}, {"measurement": "arachidonic acid-induced platelet aggregation", "setting": "platelet aggregation", "result": "abolished arachidonic acid-induced platelet aggregation"}, {"measurement": "tail bleeding time, inhibitor in GCSF-treated (neutrophilia) mice", "setting": "C57BL6/J mice [3]; [6]", "result": "no different from vehicle/vehicle controls"}, {"measurement": "tail bleeding time, inhibitor in mice given vehicle for GCSF", "setting": "C57BL6/J mice [3]; [6]", "result": "longer bleeding times than mice treated with both vehicles"}]}
{"molecule": "TNFα", "values": [{"measurement": "TRAP-induced platelet aggregation in presence of cytokine-treated neutrophils", "setting": "[4]", "result": "did not modify the effect of PMN on platelet aggregation"}]}
{"molecule": "IL-1β: pro-inflammatory cytokine interleukin 1-beta", "values": [{"measurement": "TRAP-induced platelet aggregation in presence of cytokine-treated neutrophils", "setting": "[4]", "result": "did not modify the effect of PMN on platelet aggregation"}]}
{"molecule": "CC(C)C[C@H](NC(=O)CNC(=O)OCc1ccccc1)C(=O)N[C@@H](Cc1ccccc1)C(=O)CCl", "note": "[Z-Gly-Leu-Phe-CMK, Z-Gly-Leu-Phe-chloromethyl ketone] (Cbz-Gly-Leu-Phe-CH2Cl)", "values": [{"measurement": "effect of inhibitor on TRAP-induced aggregation in presence of IL-6-treated neutrophils", "setting": "[4]; [7]", "result": "prevented IL-6-treated neutrophils from augmenting aggregation compared to vehicle-treated neutrophils"}, {"measurement": "effect of inhibitor on TRAP-induced aggregation in presence of vehicle-treated neutrophils", "setting": "[4]; [7]", "result": "attenuated compared but remained greater than in PRP alone"}, {"measurement": "thrombus formation in vivo (time to first thrombus)", "setting": "C57BL6/J mice [2]; Z-Gly-Leu-Phe-CMK 50 μl of 4 mM solution intravenously, 500 μM ferric chloride", "result": "diminishes capacity for thrombus formation in vivo"}]}
{"molecule": "G-CSF: granulocyte colony stimulating factor; stimulates the bone marrow to produce neutrophils (protein, UniProt P09919 31-207, looked up) Granulocyte …: TPLGPASSLPQSFLLKCLEQVRKIQGDGAALQEKLVSECATYKLCHPEELVLLGHSLGIPWAPLSSCPSQALQLAGCLSQLHSGLFLYQGLLQALEGISPELGPTLDTLQLDVADFATTIWQQMEELGMAPALQPTQGAMPAFASAFQRRAGGVLVASHLQSFLEVSYRVLRHLAQP", "values": [{"measurement": "neutrophil counts in CYP-treated mice", "setting": "[5]; Example 8, CYP/G-CSF group", "result": "0.80±0.16 ×10^3/μl"}, {"measurement": "number of blood neutrophils", "setting": "[5]; Example 11, third treatment day, GCSF 1 μg SQ 3 days or vehicle", "result": "4.90±1.25 ×10^3/μl"}, {"measurement": "tail bleeding time in CYP-treated mice", "setting": "C57BL6/J mice [3]; Example 8, FIG. 10, G-CSF 1 μg daily for 3 days after CYP 50 mg/kg", "result": "restored bleeding time to baseline"}]}
